Results from patent publication US20160184404A1, “NOVEL HEMOGLOBIN-DERIVED PEPTIDE BASED PHARMACEUTICAL COMPOSITIONS” (CLINIQUE LA PRAIRIE, priority 2014, published 2016).

Tests used:
[1] = Atomic force microscopy of MPLA dispersions; type: physicochemical
Experimental: Atomic force microscopy (AFM) allows a direct look onto the morphology of lipid aggregates on a molecular scale under almost physiological conditions. This allows obtaining depth profiles of MPLA dispersions down to a resolution limit of lower than 1 nm. For the analysis, MPLA dispersions were prepared at a concentration of 25 μM in physiological saline in the absence and presence of an equimolar content of Hbg-32.

[2] = Small angle X-ray scattering (SAXS) of MPLA aggregates; type: physicochemical; settings: MPLA alone or in the presence of peptide; 40° C.; FIG. 22
Experimental: SAXS measurements were performed at the European Molecular Biology Laboratory (EMBL) outstation at the Hamburg synchrotron radiation facility HASYLAB using the camera X33. Diffraction patterns in the range of the scattering vector 0.1<s<1.0 nm^−1 (s=2 sin θ/λ, 2θ scattering angle and A the wavelength=0.15 nm) were recorded at 40° C. with exposure times of 1 min using an image plate detector with online readout (MAR345, MarResearch, Norderstedt/Germany). The lipid concentration was in all cases 20 mM. The s-axis was calibrated with Ag-behenate, which has a periodicity of […]. The diffraction patterns were evaluated as described previously (Howe et al. (2008a)), assigning the spacing ratios of the main scattering maxima to defined three-dimensional structures. The lamellar and cubic structures are the most relevant here. The following features characterize the supramolecular structure: • (1) lamellar: The reflections are grouped in equidistant ratios, i.e., 1, ½, ⅓, ¼, etc. of the • lamellar repeat distance dλ; • (2) cubic: The different space groups of these non-lamellar three-dimensional structures differ in the ratio of their spacings. The relation between reciprocal spacing shkl=1/dhkl and lattice constant a is
shkl=[(h^2+k^2+l^2)/a]^1/2 • (hkl=Miller indices of the corresponding set of plane).

[3] = Förster resonance energy transfer spectroscopy (FRET), intercalation into MPLA aggregates; type: physicochemical
[4] = Freeze-fracture transmission electron microscopy of MPLA; type: physicochemical; settings: MPLA 1 mM alone or with equimolar peptide; FIG. 25
Experimental: A small amount of the samples was sandwiched between two copper profiles and frozen by plunging the sandwiches immediately into liquefied ethane-propane-mixture cooled in liquid nitrogen. Fracturing and replication were performed at −150° C. in a BAF 400T freeze-fracture device (BAL-TEC, Balzers, Liechtenstein) equipped with electron guns and a film sheet thickness monitor. For replication Pt(C) was evaporated under an angle of 35° and (C) under 90°. The replicas were placed on copper grids and cleaned with a chloroform-methanol mixture.

[5] = tested on: Purified human monocytes; assay: Stimulation of purified human monocytes with MPLA in the presence of Hbγ1-peptides, IL-6 ELISA; type: cell-based; settings: MPLA 1 μg/ml; peptide 1, 3, 10 μM; FIG. 9
Experimental: FIG. 9: Synergistic effect of Hbg-23 and Hbg-32 peptide on stimulation of human monocytes with MPLA. Purified human monocytes (>95%) were stimulated with MPLA (1 μg/ml) in the presence or absence of the Hbγ1-peptides Hbg-23 and Hbg-32-107 (1, 3 and 10 μM). Control cultures were kept without MPLA. After a culture period of 20 h, the IL-6 concentration in the supernatant was determined by ELISA. Each value represents the mean±SD of duplicate cultures.
Human mononuclear cells (MNC) were isolated from peripheral blood of healthy donors by density-gradient centrifugation on Ficoll gradient media (PAA Laboratories GmbH, Pasching, Austria). The cells were suspended and cultured in RPMI-1640 medium, containing […]. 50 μl of a peptide solution were incubated with 50 μl of a MPLA solution in a U-form 96 well micro cell culture plate #3799 (Corning Costar GmbH, Bodenheim, Germany) for 15 min at 37° C. After this incubation period 20 μl of heat-inactivated (56° C./30 min) human serum or RPMI-1640 medium were added. […] The cytokine concentrations in the supernatants were determined by matched antibody pairs for ELISA obtained from Invitrogen GmbH, Darmstadt (Germany). […]

[6] = tested on: Human MNC; assay: Stimulation of human MNC with MPLA in the presence of Hb-derived peptides, cytokine ELISA of supernatant; type: cell-based; settings: MPLA 3 μg/ml; for synergistic activity with MPLA, IL-6 release / synergistic effect with MPLA in the absence and presence of human serum, IL-6 release: peptide 1, 3, 10 μM; for synergistic activity with MPLA, IL-6 release: 20 h, FIG. 7, 10, 12, 15, 16, 29; for synergistic effect with MPLA in the absence and presence of human serum, IL-6 release: with or without 10% human serum, FIG. 8, 14; for effect of alanine replacement on the synergistic activity of Hbg-35 with MPLA, IL-6 release: alanine-scan, peptide 3 μM, FIG. 18
Experimental: Human mononuclear cells (MNC) were isolated from peripheral blood of healthy donors by density-gradient centrifugation on Ficoll gradient media (PAA Laboratories GmbH, Pasching, Austria). The cells were suspended and cultured in RPMI-1640 medium, containing […]. 50 μl of a peptide solution were incubated with 50 μl of a MPLA solution in a U-form 96 well micro cell culture plate #3799 (Corning Costar GmbH, Bodenheim, Germany) for 15 min at 37° C. After this incubation period 20 μl of heat-inactivated (56° C./30 min) human serum or RPMI-1640 medium were added. Finally, 80 μl of a MNC cell suspension was added to give a final concentration of 1 to 2×10^6 cells for culture in the absence of human serum or 1×10^6 cells for culture in the presence of serum. After a culture time of 20 h the cells were spun down and the culture supernatants were harvested. The cytokine concentrations in the supernatants were determined by matched antibody pairs for ELISA obtained from Invitrogen GmbH, Darmstadt (Germany). Mostly, each value represents the mean±SD of duplicate culture. In FIG. 3 the mean of three independent experiments is given, each of these three independent experiments having duplicate cultures.

[7] = Laser light scattering of MPLA suspensions; type: physicochemical; settings: MPLA 0.1 mM + Hbg-32 0.1 mM; FIG. 24
[8] = tested on: Human MNC; assay: Stimulation of human MNC with LPS in the presence of Hbg-32, IL-6 ELISA; type: cell-based; settings: LPS 1 ng/ml; peptide 1, 3, 10 μM; FIG. 12
[9] = Fourier-transform infrared spectroscopy, amide I band, secondary structure; type: physicochemical
[10] = tested on: Human MNC; assay: Stimulation of human MNC with synthetic lipopeptides (Pam3C-SK4, FSL-1) in the presence of Hbg-35, IL-6 ELISA; type: cell-based; settings: Pam3C-SK4 10 nM or FSL-1 1 nM; peptide 1, 3, 10 μM; FIG. 30
[11] = tested on: human memory T-cell; assay: Stimulation of memory T-cells in human MNC with recall antigens PPD and TT, 3H-thymidine incorporation; type: cell-based; settings: MPLA 10 ng/ml; peptide 1 or 3 μM; FIG. 21
Experimental: For stimulation of T-lymphocytes, human MNC were cultured in RPMI-1640 medium, containing […], and 10% of inactivated human serum at a concentration of 0.5 to 1.0×10^6 cells per ml in flat-bottom 96-well tissue culture plates. To investigate the adjuvant effect of MPLA and Hbg-peptides, the recall antigens tetanus toxoid (TT) and purified protein derivatives of M. tuberculosis (PPD) (both from Statens Serum Institute, Copenhagen, Danmark) were used. After 6 days of culture, cells were labeled with ^3H-Thymidine (3HTdR (2 Ci/mmol, 0.2 μCi/culture)) and after an additional day of culture the cells were harvested on glass-filter mats for measurement of incorporated radioactivity into the DNA. The results are expressed as mean±SD of duplicate cultures.
There is a close interaction between the innate immune system, as presented by e.g. monocytes and dendritic cells, and the adaptive immune system, as presented by T-lymphocytes and B-lymphocytes. Monocytes and dendritic cells present antigenic fragments to the cells of the adaptive immune system to initiate a specific immune reaction. In addition, they support the strength and polarization of the immune response by means of the release of cytokines. […]

Substance: TVLAIHFGKEFTPEVQASWQKMVTAVASAQ (Hbg-32)
- part of the plane showing bilayered structures (AFM) ([1]; MPLA 25 μM + equimolar peptide): More than 90%
- thickness of bilayered structures (AFM) ([1]; MPLA 25 μM + equimolar peptide): approximately 5 nm
- maximum heights of the MPLA assembly (AFM) ([1]; MPLA 25 μM + equimolar peptide, FIG. 26B): up to 10 nm
- morphology of MPLA aggregates (AFM) ([1]; MPLA 25 μM on mica, alone or with equimolar peptide, after one hour): tightly packed layers disaggregate dramatically
- aggregate structure of MPLA (SAXS) [2]: converted into one with cubic symmetry
- intercalation of the peptide into MPLA aggregates (FRET) ([3]; [MPLA]:[Hbg-32] molar ratio 10:1): considerable intercalation
- intercalation of the peptide into MPLA aggregates (FRET) ([3]; equimolar concentration): much more pronounced
- morphology of MPLA aggregates (freeze-fracture electron microscopy) [4]: these aggregates are dispersed and become more spherical
- synergism with MPLA in stimulating purified human monocytes, IL-6 release [5]: synergize with MPLA
- synergistic activity with MPLA compared with native Hbγ1 chain, IL-8 release ([6]; 3 and 10 μM, FIG. 13): higher synergistic activity
- synergistic activity with MPLA, IL-6 release [6]: synergically enhanced
- synergistic activity with MPLA, IL-6 release ([6]; listed as Hbg-32-107): increased synergistic effects
- synergistic activity with MPLA, IL-6 release ([6]; listed as Hbg-32-108): synergistic effects comparable to Hbg-32-107
- synergistic activity with MPLA, IL-6 release ([6]; listed as Hbg-32-KB): synergistic effects comparable to Hbg-32-107
- synergistic effect with MPLA in the absence and presence of human serum, IL-6 release [6]: synergistic effects in the absence as well as in the presence of human serum
- synergistic effect with MPLA on IL-1β, IL-6, IL-8 and TNFα release ([6]; peptide 3, 10 μM, FIG. 11): also found with respect to IL-1β and TNFα release
- effect of peptide on MPLA aggregation (laser light scattering) [7]: clear disaggregating effect
- synergistic enhancement of LPS immunostimulatory activity, IL-6 release [8]: synergically enhanced

Substance: TVLAIHFGKEFTPEVQASWQKMVTGVASAL (Hbg2-70)
- synergistic activity with MPLA, IL-6 release [6]: synergistically active in a similar range as Hbg-35-146m

Substance: TVLAIHFGKEFTPEVQASWQKMVTAVASAL (Hbg-35)
- influence of MPLA addition on the peptide's secondary structure (FTIR) ([9]; Hbγ35:MPLA 1:1 molar): does not influence the peptide's secondary structure
- secondary structure of the peptide (FTIR) ([9]; peptide alone and 1:1 molar with MPLA, FIG. 28): main α-helical structure and a minor β-sheet component
- main absorbance maximum, amide I band ([9]; peptide alone and with MPLA): around 1659 cm^−1
- second peak, amide I band ([9]; peptide alone and with MPLA): around 1628 cm^−1
- synergistic activity with synthetic lipopeptides, IL-6 release [10]: synergistic activity
- synergistic effect with MPLA in the absence and presence of human serum, IL-6 release [6]: resembled the synergism mediated by Hbg-32
- effect on the adjuvant effect of MPLA on PPD and TT induced T-lymphocyte proliferation [11]: enhanced

Substance: Hbg-54: Hbg-35 alanine-scan peptide, replacement of Glu125/Ala (TVLAIHFGKEFTPAVQASWQKMVTAVASAL; Hbg-54)
- effect of alanine replacement on the synergistic activity of Hbg-35 with MPLA, IL-6 release [6]: abolished the synergistic effects

Substance: Hbg-55: Hbg-35 alanine-scan peptide, replacement of Val126/Ala (TVLAIHFGKEFTPEAQASWQKMVTAVASAL; Hbg-55)
- effect of alanine replacement on the synergistic activity of Hbg-35 with MPLA, IL-6 release [6]: abolished the synergistic effects
